Binding signal data for 18 sequences are collected here from publication PMC12820563, “FoxP3 forms a head-to-head dimer in vivo and stabilizes its multimerization on adjacent microsatellites”.

Some of the results follow.

The assay concerns the target T1, MBP-FoxP1dN (Mus musculus, UniProt P58462 326-579).
T1 sequence: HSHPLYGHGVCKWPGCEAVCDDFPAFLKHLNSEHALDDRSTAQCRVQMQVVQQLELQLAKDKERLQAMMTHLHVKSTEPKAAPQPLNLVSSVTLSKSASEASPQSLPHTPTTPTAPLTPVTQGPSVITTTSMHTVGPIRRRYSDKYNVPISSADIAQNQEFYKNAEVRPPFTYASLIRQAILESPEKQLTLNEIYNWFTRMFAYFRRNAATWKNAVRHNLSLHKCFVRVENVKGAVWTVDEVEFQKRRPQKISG
In words: PD-seq (MBP pull-down with sequencing); 20 mM Tris-HCl pH 7.5, 100 mM NaCl, 1.5 mM MgCl2, 0.4 uM protein, 0.1 uM dsDNA library, 30 min, room temperature, amylose pull-down; high values mean tight binding. To be noted: protein: recombinant; tags: His6-MBP; chain copies: 2; dsDNA, one strand shown. The procedure, abridged: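 E. coli-expressed mouse FoxP3 or FoxP1 fragment, N-terminus removed and tagged with His6-MBP, was used at 0.4 µM against 0.1 µM of a Klenow-filled degenerate double-stranded DNA library. After 30 min at room temperature in Tris pH 7.5 buffer with NaCl and MgCl2, complexes were pulled down on amylose resin and washed three times. Binding is pull-down over input reads-per-million enrichment from pooled replicates of the proteinase K-released, PCR-barcoded, Illumina-sequenced DNA.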
As for “GATGATTGTTCTCCCAGCTGATGAATTGATCTGCTCGAGTAAACAAATTTTCCTAATCTTTCTGTTCAAGCGCCATCTAC”, the binding signal was 0.94 RPM ratio (pull-down/input).
With “GATGATTGTTCTCCCAGCTGATGAATTATTTGTCTCGAGTAAACAAATTTTCCTAATCTTTCTGTTCAAGCGCCATCTAC” the figure was 1.66 RPM ratio (pull-down/input); with “GATGATTGTTCTCCCAGCTGATGAATTCCCGAGTTCGAGTAAACAAATTTTCCTAATCTTTCTGTTCAAGCGCCATCTAC”, 0.811 RPM ratio (pull-down/input).
As for “GATGATTGTTCTCCCAGCTGATGAATTAACCTTGTCGAGTAAACAAATTTTCCTAATCTTTCTGTTCAAGCGCCATCTAC”, the figure is 0.862 RPM ratio (pull-down/input); as for “GATGATTGTTCTCCCAGCTGATGAATTTCTTTAGTCGAGTAAACAAATTTTCCTAATCTTTCTGTTCAAGCGCCATCTAC”, 0.819 RPM ratio (pull-down/input).
As for “GATGATTGTTCTCCCAGCTGATGAATTTATGGGCTCGAGTAAACAAATTTTCCTAATCTTTCTGTTCAAGCGCCATCTAC”, the figure is 0.937 RPM ratio (pull-down/input); as for “GATGATTGTTCTCCCAGCTGATGAATTTGCTGTCTCGAGTAAACAAATTTTCCTAATCTTTCTGTTCAAGCGCCATCTAC”, 1.22 RPM ratio (pull-down/input); as for “GATGATTGTTCTCCCAGCTGATGAATTCCACGTGTCGAGTAAACAAATTTTCCTAATCTTTCTGTTCAAGCGCCATCTAC”, 0.85 RPM ratio (pull-down/input).
On to “GATGATTGTTCTCCCAGCTGATGAATTGCCGTAATCGAGTAAACAAATTTTCCTAATCTTTCTGTTCAAGCGCCATCTAC”, for which the binding signal was 1.39 RPM ratio (pull-down/input).
With “GATGATTGTTCTCCCAGCTGATGAATTACTCACGTCGAGTAAACAAATTTTCCTAATCTTTCTGTTCAAGCGCCATCTAC” the figure was 1.01 RPM ratio (pull-down/input); with “GATGATTGTTCTCCCAGCTGATGAATTGAAACACTCGAGTAAACAAATTTTCCTAATCTTTCTGTTCAAGCGCCATCTAC”, 0.982 RPM ratio (pull-down/input); with “GATGATTGTTCTCCCAGCTGATGAATTATGAGTTTCGAGTAAACAAATTTTCCTAATCTTTCTGTTCAAGCGCCATCTAC”, 1.04 RPM ratio (pull-down/input).
Consider “GATGATTGTTCTCCCAGCTGATGAATTGGCGCTGTCGAGTAAACAAATTTTCCTAATCTTTCTGTTCAAGCGCCATCTAC”, for which the binding signal was 0.849 RPM ratio (pull-down/input).
With “GATGATTGTTCTCCCAGCTGATGAATTCAATGTATCGAGTAAACAAATTTTCCTAATCTTTCTGTTCAAGCGCCATCTAC” the figure was 1.19 RPM ratio (pull-down/input); with “GATGATTGTTCTCCCAGCTGATGAATTTGGGGAATCGAGTAAACAAATTTTCCTAATCTTTCTGTTCAAGCGCCATCTAC”, 0.916 RPM ratio (pull-down/input); with “GATGATTGTTCTCCCAGCTGATGAATTTTTGCCGTCGAGTAAACAAATTTTCCTAATCTTTCTGTTCAAGCGCCATCTAC”, 0.905 RPM ratio (pull-down/input).
On to “GATGATTGTTCTCCCAGCTGATGAATTAACTCCGTCGAGTAAACAAATTTTCCTAATCTTTCTGTTCAAGCGCCATCTAC”, for which the binding signal is 0.847 RPM ratio (pull-down/input).
Take “GATGATTGTTCTCCCAGCTGATGAATTAAAAGAATCGAGTAAACAAATTTTCCTAATCTTTCTGTTCAAGCGCCATCTAC”: the binding signal was 1 RPM ratio (pull-down/input).
